# Among all 310,000 compounds or so, about 2,200 (0.71%) showed an effect of 50% or more. The effect is printed as a negative number. The list shows a part of the results.
# Molecular target: human ether-à-go-go-related gene (hERG) potassium channel (human, UniProt Q12809)
# Test: primary screen, population patch clamp on CHO cells stably expressing hERG
# Chain of human ether-à-go-go-related gene (hERG) potassium channel (Q12809 whole entry, looked up): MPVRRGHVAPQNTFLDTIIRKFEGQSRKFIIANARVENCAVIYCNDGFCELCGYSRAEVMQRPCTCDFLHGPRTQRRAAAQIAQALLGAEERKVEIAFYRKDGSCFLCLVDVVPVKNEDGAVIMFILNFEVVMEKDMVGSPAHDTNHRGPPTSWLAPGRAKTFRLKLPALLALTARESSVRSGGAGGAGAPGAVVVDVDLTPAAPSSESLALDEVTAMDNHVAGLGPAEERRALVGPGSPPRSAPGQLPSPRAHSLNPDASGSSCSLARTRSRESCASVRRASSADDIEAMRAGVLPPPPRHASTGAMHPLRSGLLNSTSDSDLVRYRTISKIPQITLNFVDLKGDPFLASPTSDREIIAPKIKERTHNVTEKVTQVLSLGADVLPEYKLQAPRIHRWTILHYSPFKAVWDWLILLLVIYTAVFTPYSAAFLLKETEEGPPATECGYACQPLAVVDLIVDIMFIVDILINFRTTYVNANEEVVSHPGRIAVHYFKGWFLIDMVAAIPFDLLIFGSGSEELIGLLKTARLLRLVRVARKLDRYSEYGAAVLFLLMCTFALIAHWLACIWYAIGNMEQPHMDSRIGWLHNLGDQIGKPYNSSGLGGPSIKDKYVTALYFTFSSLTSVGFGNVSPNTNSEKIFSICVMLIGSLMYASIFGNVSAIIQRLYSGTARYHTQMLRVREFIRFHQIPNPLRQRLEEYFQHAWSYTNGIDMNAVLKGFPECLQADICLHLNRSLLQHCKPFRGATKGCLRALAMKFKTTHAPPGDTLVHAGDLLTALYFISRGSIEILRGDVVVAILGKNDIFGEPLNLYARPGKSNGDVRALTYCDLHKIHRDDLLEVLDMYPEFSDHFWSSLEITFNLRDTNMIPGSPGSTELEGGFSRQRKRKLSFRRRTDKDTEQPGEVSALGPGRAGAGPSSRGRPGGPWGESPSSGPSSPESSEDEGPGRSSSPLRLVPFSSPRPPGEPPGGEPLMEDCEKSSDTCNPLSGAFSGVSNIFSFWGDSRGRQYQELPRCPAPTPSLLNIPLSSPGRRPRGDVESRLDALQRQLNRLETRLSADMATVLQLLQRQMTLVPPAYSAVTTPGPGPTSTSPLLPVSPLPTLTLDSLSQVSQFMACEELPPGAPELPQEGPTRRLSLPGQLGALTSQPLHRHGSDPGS
row,Compound,"hERG current change (%, negative = inhibition) at 1uM"
1,Cc1nn(C(=O)N(C)C)c(C)c1CN1C(=O)c2ccccc2C1=O,16.4%
2,CC1CCCN(C(=O)CSc2nc3ncccc3[nH]2)C1 (stereo not drawn),4.71%
3,COc1ccc(N2CCN(C(CNC(C)=O)c3ccc4c(c3)OCO4)CC2)cc1 (stereo not drawn),15.9%
4,CCn1nc(NC(=O)C2CCCO2)c2cc3cc(C)ccc3nc21 (stereo not drawn),7.19%
5,CCCCNC(=O)C1C2C=CC3(CN(Cc4ccccc4Cl)C(=O)C13)O2 (stereo not drawn),14%
6,COc1ccc([N+](=O)[O-])cc1NC(=O)COC(=O)c1ccccc1C(=O)c1ccccc1,0.26%
7,CN(C(=O)c1ccc2c(=O)n3c(nc2c1)CCCCC3)c1cccc(Cl)c1,0.0681%
8,Cc1ccc(-n2c(SCC(=O)N3CC(=O)Nc4ccccc43)nc3ccccc3c2=O)cc1,3.28%
9,COC(C(=O)Nc1ccnn1C1CCN(Cc2ccc(C)o2)CC1)c1ccccc1 (stereo not drawn),8.71%
10,Cc1c(C(=O)O)oc2c1C(O)CCC2 (stereo not drawn),-1.66%
11,COc1ccc(CCC(=O)N(c2nnc(-c3cccnc3)s2)C(C)C)cc1.Cl,-3.31%
12,COc1ccc(CCNC(=O)c2ccc(N(C)S(=O)(=O)c3ccc(C)cc3)cc2)cc1,0.332%
13,Cc1ccc(CNC(=O)C2CCCN(S(=O)(=O)c3ccc(F)cc3)C2)cc1 (stereo not drawn),-8.97%
14,Cc1ncc([N+](=O)[O-])n1Cc1ccccc1F,12%
15,O=C(Nc1nccs1)c1ccc2ccccc2c1,21.5%
16,CN1CCN(S(=O)(=O)c2ccc(NC(=O)c3ccc(Br)o3)cc2)CC1,-4.72%
17,O=C1C=C(c2ccc(F)c(Cl)c2)C[C@@H](c2ccc(F)cc2)C1,1.79%
18,COc1ccc2c(c1)c(CC(=O)Nc1ccc(C(C)=O)cc1)c(C)n2C(=O)c1ccc(Cl)cc1,3.95%
19,Cc1cc(OCC(=O)Nc2ccc3oc(-c4ccncc4)nc3c2)ccc1Cl,9.6%
20,CCOc1ccc(-c2ccc(SC)nn2)cc1,12.8%
21,COc1ccc(/C=C(\NC(=O)c2cccs2)C(=O)Nc2ccc(C)cc2)cc1OC,5.9%
22,Cc1c(Cl)cccc1NC(=O)COC(=O)c1c2c(nc3ccccc13)CCN(Cc1ccccc1)C2,9.3%
23,Cc1cccc(NC(=S)NC2CCN(Cc3ccccc3)CC2)c1C,14.4%
24,CCn1c(=N)n(CC(O)c2cccs2)c2ccccc21.Cl (stereo not drawn),-7.18%
